These results are taken from the RNAGym collection of RNA variant scans (doi:10.7554/elife.90254).

The source gives no read counts; variants with many changes may rest on few reads.

First the molecules themselves.
B1: LINE1-mini (parent)
chain: GGCAGAGCUCAACACAGCGUGGCAAAGUGGCUGUGGCUAGACUGCC

In this data set the parent is B1. Description: self-cleavage, relative activity (ratio to wild type); higher = more cleavage; in vitro, sequencing; the parent is a self-cleaving ribozyme.
G2U G27A G44A: the self-cleavage stood at 0.08.
For G2U C10A G19C C42G, the self-cleavage came to 0.01.
In the case of G2U A4U U28G G40A, the self-cleavage was 0.13.
On to G2U A12G A26C G44A, for which the self-cleavage came out at 0.
G2U G21U A25U A26U C46A: the self-cleavage was determined as 0.03.
Take G2U A26C C31U C37A: the self-cleavage worked out at 0.03.
As to G2U U9C A12C G35C C46G, the self-cleavage came out at 0.02.
For G2U C8G U32A G36U the value was 0.03; for G2U C13U A14C C37A, 0.1; for G2U C8A U9A G30C C45A, 0.03.
As for G2U C8G U20C G30A, the self-cleavage stood at 0.01.
For G2U C15U G27U G30A U38G C45U, the self-cleavage amounted to 0.
Turning to G2U C8G U38C, the self-cleavage was 0.09.
Then G2U C8A C18G U20A A39C, with 0.01; and G2U G5U A11U A14G, with 0.01.
With G2U C10A A16G, the self-cleavage is 0.
G2U C3G U9C G17C A24C C31U A39G U43C: the self-cleavage amounted to 0.01.
For the variant G2U C13U G21U, the self-cleavage was found to be 0.05.
Consider G2U G5U A24U C31U C46U, for which the self-cleavage came to 0.02.
Take G2U C10G A39U: the self-cleavage is 0.01.
For the variant G2U A16G C31A, the self-cleavage was 0.02.
Take G2C U28G G35A G44A: the self-cleavage worked out at 0.03.
Then G2C U9G C15A U43G, with 0.01.
In the case of G2U G19A C23U A24U G29C C31G, the self-cleavage came to 0.03.
For G2C U9C G27U G33A the value was 0.02.
Then G2U C13A A26G, with 0.04; and G2U G7A U9A A26C G33U C37U, with 0.05; and G2U A24C C31A A39C U43G C46A, with 0.
Turning to G2C G21U G30A, the self-cleavage turned out to be 0.28.
Take G2U C8G G35A: the self-cleavage was 0.07.
In the case of G2C U20A U43A, the self-cleavage worked out at 0.06.
For G2U G19A G44U the value was 0.03; for G2U C8A C13A, 0.04; for G2U C23G U34C, 0.01.
In the case of G2C U9A G29U G30C G36A, the self-cleavage was determined as 0.11.
As for G2U C13A A16G U32C, the self-cleavage was found to be 0.02.
Turning to G2U A41U C42U G44U, the self-cleavage came to 0.16.
For G2U A24G G36A U38C G40A, the self-cleavage was 0.01.
On to G2U A24G G30C U32C, for which the self-cleavage came to 0.05.
For G2C U32A G36C, the self-cleavage is 0.01.
With G2U G22A G33C G40A, the self-cleavage was 0.02.
Turning to G2U C13U G17C, the self-cleavage amounted to 0.02.
In the case of G2U A26U C42U, the self-cleavage was 0.01.
With G2U A14G G19U, the self-cleavage stood at 0.09.
For G2U G21U G33C U34G, the self-cleavage turned out to be 0.
G2U C3U C13U A14U C15G: the self-cleavage is 0.05.
For the variant G2U C10U A12U C15A C23U A41C, the self-cleavage turned out to be 0.01.
For the variant G2U G19C G30A U32A A39G, the self-cleavage amounted to 0.
With G2U C8G A25C G30A A39G, the self-cleavage was 0.01.
Then G2U G5U A11U G33C C37U, with 0.01; and G2C G40C C42A G44C, with 0.11.
In the case of G2U C15G G27C, the self-cleavage is 0.02.
In the case of G2U C8G G19C U34C G40U, the self-cleavage came out at 0.02.
Then G2U A14G G36A, with 0.01.
Regarding G2U G40A C42G, the self-cleavage is 0.03.
Turning to G2C U9A G36C U43A, the self-cleavage was 0.04.
For G2U C3U G5C C8U C13A C18A C37G A41C C45G the value was 0.01; for G2U G5C C8U C18U G22C, 0.02.
For the variant G2U A24G U28A C31U A39U, the self-cleavage stood at 0.02.
Take G2U C3G C15G C18A G30C U38A U43A: the self-cleavage is 0.
With G2U C15A C37A G40U, the self-cleavage amounted to 0.01.
For G2U A6C A12U G17A C23A A41C the value was 0.02; for G2U G7A A26C, 0.04; for G2U G19U U32A G40U, 0.01.
In the case of G2U C18U G33C, the self-cleavage came out at 0.02.
In the case of G2U G5A A16U C31G G36C, the self-cleavage came to 0.
Take G2U A16G G40A: the self-cleavage came to 0.02.
For the variant G2U G5A G21U, the self-cleavage was 0.05.
Then G2U G30U C37A, with 0.03.
For G2U C10A G17U G27A C37G, the self-cleavage was 0.
For G2C G19U G33U U43A G44C, the self-cleavage amounted to 0.06.
In the case of G2U A6U G29U C37A, the self-cleavage turned out to be 0.02.
For the variant G2U A11C C18G, the self-cleavage was 0.
As to G2U G17A U43C, the self-cleavage was determined as 0.
Regarding G2C G19U G27C, the self-cleavage worked out at 0.07.
G2U C13U U28C A41U U43G: the self-cleavage stood at 0.04.
For G2U A4C A14G G19A U32G the value was 0.02; for G2U G35U U43C, 0.01; for G2U A4G A14G, 0.05.
For G2U C15G G17A G36A the value was 0.03.
With G2U A14U A41U, the self-cleavage amounted to 0.04.
For the variant G2U C18G U32A G36C, the self-cleavage was 0.02.
On to G2U G17C C46A, for which the self-cleavage was 0.02.
Consider G2U C18A A24C C31U A39U C42A, for which the self-cleavage was 0.01.
Take G2U A24C U34G C42U: the self-cleavage amounted to 0.
For G2U G36U C45G, the self-cleavage was 0.15.
Turning to G2C G35C C37G A41U, the self-cleavage is 0.02.
With G2U G21C G27A A39U, the self-cleavage was 0.04.
Take G2U C3G C10A C18A C23G: the self-cleavage came to 0.03.
G2U G5A U34G: the self-cleavage worked out at 0.02.
With G2U G17U A25U G30C, the self-cleavage stood at 0.03.
Consider G2U A12G C15U U32C, for which the self-cleavage was found to be 0.04.
As for G2C U9G A25U U32C, the self-cleavage was 0.01.
For the variant G2C G21A G27C, the self-cleavage is 0.07.
Regarding G2U G7U U32G A41G, the self-cleavage stood at 0.11.
For G2U G19A G30U G35A G44U the value was 0.02; for G2C U20A A25G G27A G36U, 0.31; for G2U C8U U32A G33A G44A, 0.09.
With G2C G27C A39U, the self-cleavage turned out to be 0.1.
As for G2C G27U G29U, the self-cleavage came to 0.1.
In the case of G2U G5U A11G C46U, the self-cleavage turned out to be 0.02.
Take G2U A25G A26G G29A: the self-cleavage was found to be 0.05.
In the case of G2U C8U C10U G35C A39U, the self-cleavage came to 0.
As to G2U A25C G27A C37A C45A, the self-cleavage turned out to be 0.06.
For G2U C18U G27U U43A C46A the value was 0.01; for G2U G5C U32G G33U, 0.01; for G2U G19A G21C, 0.05.
On to G2U C3U G5U A24G, for which the self-cleavage is 0.02.
As to G2U C13A G29C, the self-cleavage was found to be 0.04.
For G2U C18G C31G the value was 0.02.
Take G2U C8A G21U A24C G40U: the self-cleavage was 0.01.
For G2U C8U A12C C15A U32A C42U the value was 0; for G2U A4G C15G G21U G35A C37A G40A, 0.03.
For G2U G7A C13A G44A the value was 0.24; for G2U C13U G30C, 0.02; for G2U A4C A6U G21A G29U C45G, 0.16.
On to G2C G30A C31A, for which the self-cleavage was found to be 0.05.
For G2U C10G C31U G40U, the self-cleavage stood at 0.
Consider G2U C18G G27C C45A, for which the self-cleavage was determined as 0.46.
Then G2C U9G C13U C31G C46G, with 0.02; and G2U C42U U43C, with 0.06; and G2U A14C G27A G35C, with 0.11.
As to G2U C3A G17U, the self-cleavage was determined as 0.07.
Then G2U C10A U20C G27A C31G C37U, with 0.01; and G2U A12C G22A C42A C46G, with 0; and G2U G19U G27U, with 0.05.
Then G2U A16U U38C C42U, with 0.08.
Turning to G2U G17A G35A G36C, the self-cleavage was determined as 0.05.
Then G2U C3A A12G A16C G21C G22U U32G A41C, with 0.02; and G2C U32C C37G, with 0.01.
Then G2U C8A G35U C37A, with 0.02.
Take G2U G7C G22U G36C C37A: the self-cleavage was determined as 0.19.
Regarding G2U C8G A39G, the self-cleavage amounted to 0.02.
Regarding G2U A24G U28A C37U, the self-cleavage amounted to 0.05.
On to G2U C31G C46U, for which the self-cleavage came out at 0.02.
As to G2U A26U G27A C37G U38A, the self-cleavage came out at 0.01.
On to G2C G29U C45A, for which the self-cleavage is 0.62.
Take G2U C3A U32A: the self-cleavage worked out at 0.05.
On to G2U G17C C18G G40U C42G G44A, for which the self-cleavage was found to be 0.
Turning to G2U A12C A14U A16C C31A C45A, the self-cleavage turned out to be 0.01.
As for G2U U9A A16C C23A, the self-cleavage was found to be 0.11.
As for G2U G17A G22U G33U, the self-cleavage was found to be 0.02.
Then G2U G21U A41U, with 0.41.
On to G2U G19A C23G C31A A39U, for which the self-cleavage amounted to 0.06.
For G2C G21C C23U G29U the value was 0.3; for G2U C3A C23U G35C, 0.04; for G2C U9C A25C, 0.02.
Turning to G2U G5U G7U C23U, the self-cleavage is 0.03.
As for G2U A12G C15U G19U G44U C45U, the self-cleavage stood at 0.
For G2U G7A A16G G19U the value was 0.06.
Then G2U C18U G22A, with 0.04; and G2U G5A U38G, with 0.06.
Regarding G2U C18U G44C, the self-cleavage worked out at 0.08.
Regarding G2U G21C C42G, the self-cleavage was 0.01.
Consider G2U A4C C13U, for which the self-cleavage was 0.
With G2U G17U U20G G40A, the self-cleavage was 0.05.
In the case of G2C U28C U32G U34C, the self-cleavage was determined as 0.01.
For G2U U9A G19C G36U the value was 0.02; for G2U A4C C13G G22C G30U, 0.08.
As to G2U C10G A14G G19U G30C, the self-cleavage turned out to be 0.01.
With G2U C10U A26G, the self-cleavage was found to be 0.01.
With G2U C31A G33C, the self-cleavage was 0.03.
With G2U G22U G30A C31G A39U, the self-cleavage amounted to 0.01.
Take G2C G40U C42G: the self-cleavage stood at 0.04.
In the case of G2C G33A G35U C45U, the self-cleavage was 0.02.
Take G2U C3A A26U G33U: the self-cleavage is 0.09.
Consider G2U G5A C31A A39G, for which the self-cleavage was determined as 0.03.
